No constants are given. Whether binding was seen depends on the method and setting. For some of these results: In cells and extracts the contact can be indirect. Some results given as binding are weak or reduced against the parent protein; the word gives no strength. Tags and fused reporters may be left off the sequences shown.

Consider four molecules from paper PMC3513311.

Experiment [1] has as its target T1, C-terminally FLAG-tagged Cas6f (Pectobacterium atrosepticum SCRI1043), Q6D0W5.
T1 chain: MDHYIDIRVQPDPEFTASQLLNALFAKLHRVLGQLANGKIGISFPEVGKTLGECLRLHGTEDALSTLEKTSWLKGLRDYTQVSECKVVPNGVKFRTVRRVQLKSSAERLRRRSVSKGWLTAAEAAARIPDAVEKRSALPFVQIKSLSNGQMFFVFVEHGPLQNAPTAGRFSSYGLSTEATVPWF
In words: co-IP; P. atrosepticum WT strain (chromosomal Cas/Csy proteins and crRNAs present); N- or C-terminally FLAG-tagged bait and N-terminally His-tagged prey co-expressed; anti-FLAG agarose; Western blot with anti-His. As to conditions: remark: other sources report otherwise. (In general: In western blotting, separated proteins are transferred to a membrane and probed.)

Experiment [2] addresses T2, C-terminally FLAG-tagged Csy1 (Pectobacterium atrosepticum SCRI1043), Q6D0W8.
T2 chain: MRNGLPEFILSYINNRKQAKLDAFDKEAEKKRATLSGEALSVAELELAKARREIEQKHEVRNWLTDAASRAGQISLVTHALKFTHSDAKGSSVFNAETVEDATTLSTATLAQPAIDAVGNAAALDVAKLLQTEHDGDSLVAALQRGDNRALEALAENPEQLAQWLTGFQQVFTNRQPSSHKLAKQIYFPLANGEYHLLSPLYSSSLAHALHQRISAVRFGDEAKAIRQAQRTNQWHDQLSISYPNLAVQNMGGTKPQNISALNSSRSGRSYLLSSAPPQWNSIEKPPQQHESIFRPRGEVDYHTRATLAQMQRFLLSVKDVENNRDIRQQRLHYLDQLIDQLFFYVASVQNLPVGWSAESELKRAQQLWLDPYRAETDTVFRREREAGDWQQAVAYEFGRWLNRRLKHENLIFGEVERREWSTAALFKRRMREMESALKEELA
Described as above. As to conditions: remark: other sources report otherwise.

In experiment [3] the target is T3, N-terminally FLAG-tagged Csy1 (Pectobacterium atrosepticum SCRI1043), Q6D0W8.
T3 chain: T2 chain
The experiment is described as above. As to conditions: remark: other sources report otherwise.

Experiment [4] has as its target T1, C-terminally FLAG-tagged Cas6f …. The experiment can be described thus: co-IP; P. atrosepticum Δcas strain (no cas1, cas3, csy1-3, cas6f operon, no mature crRNAs); N- or C-terminally FLAG-tagged bait and N-terminally His-tagged prey co-expressed; anti-FLAG agarose; Western blot with anti-His. Conditions: remark: other sources report otherwise.
In experiment [5] the target is T2, C-terminally FLAG-tagged Csy1 …. The description is as above. Conditions: remark: other sources report otherwise.
For experiment [6], the target named is T3, N-terminally FLAG-tagged Csy1 …. Described as above. As to conditions: remark: other sources report otherwise.
Experiment [7] has as its target T4, N-terminally His-tagged Csy1 (Pectobacterium atrosepticum SCRI1043) (UniProt Q6D0W8).
T4 sequence: T2 chain
The experiment can be described thus: pull-down; His-Csy1 and native Csy2 co-purified from the Δcas mutant; unpublished data.

Experiment [8] concerns the target T4, N-terminally His-tagged Csy1 (Pectobacterium atrosepticum SCRI1043). The experiment can be described thus: SEC; His-Csy1 and native Csy2 co-purified from the Δcas mutant, size exclusion column; unpublished data.
Experiment [9] has as its target T5, C-terminally FLAG-tagged Csy3 (Pectobacterium atrosepticum SCRI1043), Q6D0W6.
T5 chain: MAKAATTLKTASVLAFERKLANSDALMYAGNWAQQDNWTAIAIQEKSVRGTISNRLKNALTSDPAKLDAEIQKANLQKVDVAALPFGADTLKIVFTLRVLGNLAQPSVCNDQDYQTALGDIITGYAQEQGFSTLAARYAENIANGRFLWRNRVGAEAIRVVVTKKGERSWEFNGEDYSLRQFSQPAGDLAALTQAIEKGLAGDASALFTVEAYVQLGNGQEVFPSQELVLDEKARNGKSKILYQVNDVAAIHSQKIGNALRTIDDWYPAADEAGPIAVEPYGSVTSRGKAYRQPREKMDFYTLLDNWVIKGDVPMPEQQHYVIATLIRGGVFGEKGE
The experiment can be described thus: co-IP; P. atrosepticum WT strain (chromosomal Cas/Csy proteins and crRNAs present); N- or C-terminally FLAG-tagged bait and N-terminally His-tagged prey co-expressed; anti-FLAG agarose; Western blot with anti-His. As to conditions: remark: other sources report otherwise.

Experiment [10] deals with T6, N-terminally FLAG-tagged Csy3 (Pectobacterium atrosepticum SCRI1043), Q6D0W6.
T6 chain: T5 chain
The description is as above. Conditions: remark: other sources report otherwise.

Experiment [11] deals with T5, C-terminally FLAG-tagged Csy3 …. In words: co-IP; P. atrosepticum Δcas strain (no cas1, cas3, csy1-3, cas6f operon, no mature crRNAs); N- or C-terminally FLAG-tagged bait and N-terminally His-tagged prey co-expressed; anti-FLAG agarose; Western blot with anti-His. Conditions: remark: other sources report otherwise.
The target of experiment [12] is T6, N-terminally FLAG-tagged Csy3 …. Described as above. As to conditions: remark: other sources report otherwise.
Experiment [13] addresses T7, N-terminally His-tagged Cas1 (Pectobacterium atrosepticum SCRI1043) (UniProt Q6D0X0).
T7 sequence: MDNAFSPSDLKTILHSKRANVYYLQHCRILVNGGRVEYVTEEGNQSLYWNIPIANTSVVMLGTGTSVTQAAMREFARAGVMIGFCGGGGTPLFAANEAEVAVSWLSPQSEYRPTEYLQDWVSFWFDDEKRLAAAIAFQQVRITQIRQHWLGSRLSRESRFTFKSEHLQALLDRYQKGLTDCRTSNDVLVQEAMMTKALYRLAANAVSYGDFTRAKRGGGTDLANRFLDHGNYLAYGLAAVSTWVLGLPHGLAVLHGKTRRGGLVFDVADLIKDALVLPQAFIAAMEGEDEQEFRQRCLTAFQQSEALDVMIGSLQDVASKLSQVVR
In words: SEC; His-Cas1 and Cas3 co-expressed and co-purified on Ni-NTA, dialysed into 20 mM HEPES, 300 mM KCl, 5% glycerol, 1 mM DTT, Superose 12 (10/300) GL; fractions on SDS-PAGE.

B1: N-terminally His-tagged Csy3, Q6D0W6 1-337 (protein)
chain: T5 chain
B1: the binding result in experiment [1], in [2], in [3], in experiment [4], in experiment [5] and in experiment [6] was “no binding” each time.

B2: native (untagged) Csy2 (protein, UniProt Q6D0W7 1-310)
chain: MSTLIILRRIQVENANAIAGLTYGFPAITHFLGFTHALSRKLQASHGLTLEGCGVVSHQHQLHAYGSSWERSFALTRNPLTKEAKTAAFNEEGRMHMTVSLLIRCDGQIPADTTALCEHLKQQAQCQRLAGGTVIDIERVTVQSLPVDEAETRGVMRRLLPGFVLRDRTSLLHRHFQTLQQAKPQAEMIDAWLDFAALKMQAERDPSDETVQWKYLPKPGDGGFLTPLMIGYRAISPLYAPGEVDKTRDPHTPFCFAEAAYGIGEWQGAHRISDISQILWEYDYQNGDYHCRQVADTHSVAEDTSYEFDY
With B2, the binding entry in experiment [7] and in experiment [8] was “binds” each time.

B3: N-terminally His-tagged Cas6f, Q6D0W5 1-184 (enzyme)
chain: T1 chain
In the case of B3, the binding result in [9], in experiment [10], in experiment [11] and in [12] was “no binding” each time.

B4: native (untagged) Cas3 (enzyme, UniProt Q6D0W9 1-1098)
chain: MNILLISECNKRALVETRRILDQFAERKGERSWQTAITLEGLNTLRKLLRKTARRNTAVACHWIRSTNHTELLWVVGNLRRFNAQGSVPTNTTSRDVLRTKDENPWHSAEVFSLLAAIAGLFHDVGKANALFQAGLSGTGPRSQPYRHEWVSLRLFQAFVGEQDDKAWLTTLSMITSEAEVALLATLQQDKPTFSDSPFRTLPPLAQTIAWLIVSHHRLPVFNKSTELAPNSSEPQLSFAETWLTDHLSPQWNALNHCQIGWTPHEREQNWQFPNGTPLYSAVWREKARKFAGRALKLPSFMHFSQLDQRLTVHLARLALMLADHHYSAGAATVGWQDITYPVWANTDRKTGEYKQRLDEHCVGVGQNALLLGRSLPHLRDTLPAITRHKGFRQRSTHPRFRWQDRAFDLACSIRETSKQHGFFGINMASTGRGKTFANARIMYGLSDESTGCRFSVALGLRTLTLQTGDALRQRLKLDEDDLAVLIGSQAVQDLHEMRKENQQRQQNTPQTGSESADPLFSEHQYVRYDGSLDDGRLKAWLERSPTLHQLLSAPVLITTIDHLMPATEALRGGHQIAPMLRLLTADLVLDEPDDFGLEDLPALCRLVNWAGMLGSRVLLSSATLPPALIRALFDAYLDGRTAWQQAYGTPNTPLNVCCGWFDEFDCQHEQYGDVKDFMVRHDAFVHQRLKNLTKDELPLRFATIVPVSSPSKNADDVYLAVAQAIHPRMFDLHSQHHQQHENGKTVSLGLVRMANIDPLVAVARQLLAIPSPPDTCIHYCIYHSQHPLAMRSHIEQRLDAALMRNDADALWQVEEIRQAIEKSSQRHHVFVALATSVAEVGRDHDYDWAIVEPSSMRSLIQPAGRILRHRQDKQYVPKTPNIYLLSHNIRALRGKDIAYCKPGFESQDDSLDTHDLHQLLQEKEYRHLSAAPRIVQPMSFAKPLSLVALEHAVLGKTLLGLKNKKLDDLKRPPAAFWWRAHPHWNGELQRRTPFRQSAKDEAYTLWIADDDEEPVFMVQDDGPSGWKQSDIARPVTLNMAEGVSAWIEPDYHALYQQLAEEKQWELSWVSARFGEIRLREEEDWYWHPLLGVFGALS
Consider B4, for which the binding entry in experiment [13] was “binds”.
